The whole screen tested about 46,000 compounds, of which about 60 (0.1%) were called active. Roughly 3% stayed inconclusive and do not appear here. Calls follow the shape of the dose curve; as a rule, active = well fitted inhibition curve with a large enough effect; inconclusive = small, poorly fitted or top-dose-only effect; inactive = no such curve, though single readings can be large or run the other way. The list shows a part of the results.
Test: Primary qHTS assay for Inhibitors of ovarian cancer metastasis using an organotypic tumor microenvironment (TME) model. Also: nearly all actives have a fitted effect of over 65% in size.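 As to activity change, negative = inhibition: plate controls were DMSO wells for no effect and tomatine positive control wells for full effect.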
Conditions: SKOV3ip1-GFP adhesion/invasion on 3D omental model, fluorescence; series mostly up to 45.8 µM; activity change, negative = inhibition: at the top concentration
Procedure, shortened: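 Primary human omental fibroblast/mesothelial 3D culture pre-formed 48 h. SKOV3ip1-GFP cells added with compounds (0.36-46 umol/L), incubated 2 h RT/16 h 37 C, fixed; GFP cells quantified at 488/509 nm.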

Activity change, negative = inhibition, inactive:
Cc1ccc(-c2cnc(C3CC3)o2)cc1S(=O)(=O)Nc1cccc(C)c1C 2.46%, O=C(CSc1nccn1-c1ccc(F)cc1)Nc1nc2ccccc2s1 -4.31%, Cc1cccc(Cn2c(-c3ccccc3)nc3ccccc32)c1 -0.709%, O=C(CC1N=C2c3ccccc3N=C(SCc3ccc(F)cc3)N2C1=O)NCCc1ccccc1 (configuration not stated) -2.49%, COc1ccc(CC(C)NS(=O)(=O)c2ccc3c(c2)CCN3S(C)(=O)=O)cc1OC (configuration not stated) 17.3%, COC(=O)c1c(NC(=O)c2ccc(OC)cc2OC)sc2c1CCCCC2 6.07%, COc1ccc(Cl)cc1NCc1nnc2n1CCCCC2 39.2%, COc1ccc(NC(=O)c2oc3ccccc3c2NC(=O)c2cc(=O)c3cc(Cl)ccc3o2)cc1 -5.39%, CCCNC(=O)Nc1ccc(Oc2ncnc3cc(OC)c(OC)cc23)cc1Cl -22.1%, Cc1ccc(NC(=O)C2CCCN(c3ncnc4c3nc3n4CCCCC3)C2)c(Br)c1 (configuration not stated) -9.71%, CCN1CCN(c2csc3ccc(Br)cc3c2=O)CC1 3.14%, Cc1cc(C)cc(-n2c(SCC(=O)Nc3ccccc3)nc3c(oc4ccccc43)c2=O)c1 -19.7%, CCOc1ccc2nc(NC(=O)c3nc(SCc4ccccc4F)ncc3Cl)sc2c1 3.76%, CCC(Cc1ccccc1)NC(=O)Cn1nc(C)n2c(cc3occc32)c1=O (configuration not stated) 9.84%, COc1cc(OC)cc(-c2nc3nc(C)c(CCC(=O)Nc4cc(C)cc(C)c4)c(C)n3n2)c1 -8.04%, CCCCn1c(=O)n(CC2CCC(C(=O)NCCCOC)CC2)c(=O)c2sccc21 (configuration not stated) 13.8%, Cc1ccc(-n2nc3c(=O)n(C(C)C(=O)NCc4ccc(OC(C)C)cc4)nc(C)c3c2C)cc1 (configuration not stated) -9.69%, Cc1ccc2nc(COc3cccc(NC(=O)Nc4ccc(C)c(Cl)c4)c3)cc(=O)n2c1 -4.57%, O=C(Cn1c(SCc2ccc(F)cc2)nc2cccnc21)Nc1ccccc1F -1.19%, COc1cccc(-c2cc(C(=O)NCCc3ccc(OC)c(OC)c3)no2)c1 -11.2%, Cc1cc(=O)[nH]c2nnc(SCc3ccc(Cl)cc3Cl)n12 0.204%, CC(=O)c1cccc(NC(=O)c2sc(-n3nc(C)c(Cc4ccccc4)c3C)nc2C)c1 -9.61%, O=C(Nc1ccc(F)c(Cl)c1)c1ccc2c(Cl)c3c(nc2c1)CCCC3 58.7%, CC(=O)OCC(=O)[C@@]1(O)[C@H](C)C[C@H]2[C@@H]3C=C(C)C4=Cc5c(cnn5-c5ccccc5)C[C@]4(C)[C@@H]3[C@@H](O)C[C@@]21C -1.92%, CCOc1ccccc1CNC(=O)c1cc2c(=O)n(Cc3cccnc3)ccc2nc1C -7.9%, COc1cccc2cc(-c3nc(-c4ccccc4F)no3)c(=O)oc12 3.28%, Cc1ccc(CNC(=O)CN2C(=O)COc3ccc(S(=O)(=O)N4CCC(C)CC4)cc32)cc1 -5.13%, C[C@]1(c2nc3c(C(N)=O)cccc3[nH]2)CCCN1 -16.7%, Cc1ccc(NC(=O)Cc2coc3c(C)c(C)ccc23)c(C)c1 -0.551%, Cc1ccc(-n2cc(C(=O)OCc3ccc(Cl)cc3)c3ccccc3c2=O)cc1 23.7%, COc1ccc(NC(=O)c2ccc3[nH]c(C)cc(=O)c3c2)cc1 2.99%, CCCCCCn1c(/C=C/c2ccccc2)nc2ccccc21 -0.134%, Cc1ccc(/C=C/C(=O)Nc2ccc(Cl)cc2Cl)cc1 -7.37%, CSc1cccc(NC(=O)c2ccc3c(c2)CCCN3S(C)(=O)=O)c1 -2.85%, CCN(CC)c1ccc(-c2nc(-c3ccccn3)no2)cc1[N+](=O)[O-] 0.486%, CN1c2ccccc2-c2nc(SCC(=O)Nc3ccccc3)ncc2S1(=O)=O 1.31%, CCc1nn(CCCC(=O)NCc2ccc(OC)c(OC)c2)c(=O)c2cc3occc3n12 -7.08%, CCN(CCCNC(=O)c1ccc(Sc2ccc(Cl)cc2)c(NC(C)=O)c1)c1cccc(C)c1 1.42%, COC(=O)C1CCN(c2csc3ccc(C)cc3c2=O)CC1 7.39%, Cc1ccc(C)c(NC(=O)CN(Cc2ccccc2)S(=O)(=O)c2ccc3nc(C)sc3c2)c1 15.4%, O=C(CSc1oc(-c2ccco2)nc1S(=O)(=O)c1ccc(Br)cc1)c1ccc(Cl)cc1 -18.8%, Cc1cc(Br)ccc1NC(=O)c1sc2ncn(Cc3ccccc3Cl)c(=O)c2c1C -11.8%, Cc1ccc(-n2ncc3c(NCc4ccccc4)ncnc32)cc1C 2.82%, COc1cc(C2Oc3nc(SC)nnc3-c3ccccc3N2C(C)=O)cc(Cl)c1OC (configuration not stated) -8.58%, CC(NC(=O)C1CCN(C(=O)N2CCOc3ccccc32)CC1)c1ccccc1 (configuration not stated) 5.88%, COc1cc(OC)c(NC(=O)CSc2nc3ccncc3[nH]2)cc1Cl 5.86%, CC1CCN(S(=O)(=O)c2cccc(C(=O)N(C)C3(C)CCS(=O)(=O)C3)c2)CC1 (configuration not stated) 4.77%, Cc1cccc(NC(=O)CCS(=O)(=O)c2cc(Br)cc3c2N(C(=O)C2CC2)CC3)c1C 4%, CCCNC(=O)Cn1nc(C)c2c(C)n(-c3ccccc3)nc2c1=O -2.42%

outcome, inactive:
COc1ccc2[nH]c3c(c2c1)CCN(C(=O)CCC1CCCC1)C3c1ccc(F)cc1 (configuration not stated), CC(C)(C)c1ccc(C(=O)NCC(=O)OCc2cc(=O)n3nc(C4CC4)sc3n2)cc1, CCn1c(=O)c2cc(C(=O)NCc3cc(OC)ccc3OC)sc2c2ccccc21, COc1ccc(NC(=O)C2CCCN(S(=O)(=O)c3c(C)[nH]c(=O)[nH]c3=O)C2)cc1OC (configuration not stated), O=C(NCc1ccc(Cl)cc1)C1CCN(S(=O)(=O)c2cccc3nonc23)CC1, CC(C)Cn1cc(NC(=O)N2CCN(c3ccc(F)cc3)CC2)c2ccccc2c1=O, COc1ccc2c(CNCc3cccs3)c(C(=O)O)n(Cc3ccc(F)cc3)c2c1, COCCNC(=O)c1ccc2c(c1)N(Cc1cc(C)ccc1C)C(=O)c1ccccc1S2=O (configuration not stated), Cc1ccc2c(CNC3CCCCC3)c(C(=O)O)n(Cc3ccc(F)cc3)c2c1, CCCS(=O)(=O)N1CC(=O)N(c2cccc(Cl)c2)C(C)(C(=O)NC2CCCCC2)C1 (configuration not stated), CCN1C(=O)c2ccccc2S(=O)(=O)c2ccc(C(=O)NCc3ccc(F)cc3)cc21, c1ccc(N2CCN(c3ncnc4c3nc3n4CCCCC3)CC2)cc1, CC1=C(C(=O)Nc2cccnc2)C(c2ccc(F)cc2)n2nc(SCc3ccccc3)nc2N1 (configuration not stated)

Source: PubChem BioAssay AID1963576 (National Center for Advancing Translational Sciences (NCATS), 2024)
